Experimental data reported in EPA's CvTdb concentration-time database.

Legend:
Mouse [1] = experiment: concentration in plasma after dosing; conditions: 2.5 min; dosed: Benzophenone; 60 mg/kg; oral; Male; B6C3F1
Mouse [2] = experiment: concentration in plasma after dosing; conditions: 0.25 h; dosed: Benzophenone; 30 mg/kg; oral; Female; B6C3F1
Mouse [3] = experiment: concentration in plasma after dosing; conditions: 3 h; dosed: Benzophenone; 15 mg/kg; oral; Male; B6C3F1
Rat [4] = experiment: concentration in plasma after dosing; conditions: dosed: Benzophenone, oral, F344
Mouse [5] = experiment: concentration in plasma after dosing; conditions: dosed: Benzophenone, B6C3F1
Rat [6] = experiment: concentration in plasma after dosing; conditions: dosed: Benzophenone, 5 mg/kg, oral, Female, F344
Mouse [7] = experiment: concentration in plasma after dosing; conditions: 1.25 h; dosed: Benzophenone; 15 mg/kg; iv; Female; B6C3F1
Rat [8] = experiment: concentration in blood after dosing; conditions: 0.25 h; dosed: Benzophenone; 5 mg/kg; oral; Male; F344
Mouse [9] = experiment: concentration in plasma after dosing; conditions: 0.125 h; dosed: Benzophenone; 60 mg/kg; oral; Female; B6C3F1

O=C(c1ccccc1)c1ccccc1 [Benzophenone]
Conditions	concentration in blood [ng/mL]	concentration in plasma [ng/mL]
Mouse [1]	–	2650
Mouse [2]	–	635
Mouse [3]	–	11.4
Mouse [7]	–	239
Mouse [9]	–	1460
Rat [8]	913	–

concentration in plasma [ng/mL], Rat [4]
Conditions	5 mg/kg	10 mg/kg
0.125 h, Female	195	470
0.125 h, Male	166	327
0.25 h, Female	236	375
0.25 h, Male	296	305
0.5 h, Female	269	543
0.5 h, Male	144	383
1 h, Female	145	180
1 h, Male	128	281
2 h, Female	106	290
2 h, Male	48.5	257
2.5 min, Female	52.2	34.4
2.5 min, Male	49.7	38.2
3 h, Female	82.8	163
3 h, Male	89.7	222
5 min, Female	145	257
5 min, Male	71.8	363
6 h, Female	68.1	111
6 h, Male	73.1	145
10 h, Female	69.4	94
10 h, Male	75.9	105
10 min, Female	134	296
10 min, Male	180	458
16 h, Female	18.1	30
16 h, Male	25.9	72.2
24 h, Female	11.8	37.9
24 h, Male	25.3	48.5

concentration in plasma [ng/mL], Mouse [5]
Conditions	Female	Male
0.125 h, 15 mg/kg, oral	801	741
0.125 h, 30 mg/kg, oral	1080	1430
0.125 h, 60 mg/kg, oral	2360	2410
0.25 h, 15 mg/kg, iv	2340	3350
0.25 h, 15 mg/kg, oral	385	490
0.25 h, 30 mg/kg, oral	772	1320
0.25 h, 60 mg/kg, oral	2930	2290
0.5 h, 15 mg/kg, iv	1530	1280
0.5 h, 15 mg/kg, oral	212	237
0.5 h, 30 mg/kg, oral	402	834
0.5 h, 60 mg/kg, oral	1640	1460
0.75 h, 15 mg/kg, iv	575	699
0.75 h, 15 mg/kg, oral	179	216
1 h, 15 mg/kg, iv	309	384
1 h, 15 mg/kg, oral	139	139
1 h, 30 mg/kg, oral	342	274
1 h, 60 mg/kg, oral	1040	736
1.25 h, 15 mg/kg, iv	201	269
1.5 h, 15 mg/kg, iv	224	149
1.5 h, 15 mg/kg, oral	152	46.1
1.5 h, 30 mg/kg, oral	174	187
2 h, 15 mg/kg, iv	135	137
2 h, 15 mg/kg, oral	61.8	29.3
2 h, 30 mg/kg, oral	170	124
2 h, 60 mg/kg, oral	502	936
2.5 h, 15 mg/kg, iv	119	60.5
2.5 min, 15 mg/kg, oral	351	172
2.5 min, 30 mg/kg, oral	390	1420
2.5 min, 60 mg/kg, oral	546	952
3 h, 15 mg/kg, iv	66.8	26.7
3 h, 15 mg/kg, oral	76.1	18.2
3 h, 30 mg/kg, oral	51.1	36.4
3 h, 60 mg/kg, oral	254	149
4 h, 15 mg/kg, oral	28.1	13.8
4 min, 15 mg/kg, iv	4180	4630
5 min, 15 mg/kg, oral	602	496
5 min, 30 mg/kg, oral	444	1590
5 min, 60 mg/kg, oral	1680	5730
6 h, 15 mg/kg, oral	26.1	77.6
6 h, 30 mg/kg, oral	27.1	36.4
6 h, 60 mg/kg, oral	133	59.6
7 min, 15 mg/kg, iv	3740	2700
8 h, 30 mg/kg, oral	–	41.6
10 h, 30 mg/kg, oral	–	12
10 h, 60 mg/kg, oral	12.8	10.3
10 min, 15 mg/kg, iv	2160	3420
10 min, 15 mg/kg, oral	527	502
10 min, 30 mg/kg, oral	691	587
10 min, 60 mg/kg, oral	1750	3100
20 min, 15 mg/kg, iv	1510	1460

Rat [6]
Conditions	concentration in plasma [ng/mL]
2 h	167
5 min	133
